# Measurements from ChEMBL document CHEMBL4888484, “Replenishing the malaria drug discovery pipeline: Screening and hit evaluation of the MMV Hit Generation Library 1 (HGL1) against asexual blood stage Plasmodium falciparum ,using a nano luciferase reporter read-out” (2022).
# About 410 (8.5%) of roughly 4,800 compounds showed an effect of 50% or more. Some of the results follow.
# Test system: Plasmodium falciparum
# Test: Confirmatory screen in NF54 pLDH assay, in single point, at 2uM, 72h
# Type: functional, Erythrocyte
# Settings: timepoint 72 hour
row,SMILES,% Inhibition [%]
1,CC(C)c1ccc([C@H](C(=O)Nc2ccc3c(c2)OCO3)N(Cc2ccccc2)C(=O)Cn2nnc3ccccc32)cc1,-6
2,Cc1cccc(CN2C(=O)[C@@H]3CCCN3c3ccc(C#N)cc32)c1,7
3,CCc1ccc(CN2CCN(Cc3cccc(Oc4ccccc4)c3)CC2)cc1,8
4,CCN1CCC(CCNC(=O)c2cc3c(s2)N(CC)CCCC3)CC1,-12
5,Cc1cc(NC(=O)Cn2ncnc2-c2cccc(C#N)c2)n(C)n1,10
6,Cc1nc([C@H]2CC(=O)N(c3ccccc3)C2)no1,-16
7,COc1ccc2nc(O)c(C(=O)Nc3ccc4c(c3F)CCNC4)cc2c1,101
8,COc1cc(C(=O)Nc2ccc(Oc3cccc4[nH]ccc34)nc2)cc2c1OCCCO2,6
9,Cc1c(CCO)c(=O)n(C)n1C(=O)c1ccc(Cl)cc1,9
10,Cn1c(=O)c2c(-c3ccc(Cl)cc3)n(-c3cccc4cccc(N)c34)cc2n(C)c1=O,91
11,CN1N=C(C(=O)NCc2ccccn2)CCC1=O,11
12,CCc1ccc2c(c1)c(-c1ccc(Cl)cc1)c(C(=O)N1CCN(c3cccc(Cl)c3)CC1)n2C,-23
13,COC(=O)Nc1ccc(Cl)cc1F,0
14,COc1ccc(CN(c2ccccc2)S(=O)(=O)c2ccc3nncn3c2)cc1,15
15,Cn1c(N2CCN(Cc3ccc4c(c3)OCO4)CC2)cc(=O)n(C)c1=O,-5
16,CN1CCN(Cc2cc3cc4c(cc3nc2-c2ccc(Cl)cc2)OCO4)CC1=O,51
17,COc1cccc(N2CCN(C3=NC(=O)[C@@H](C#N)C4(CCCC4)N3)CC2)c1,3
18,Cc1cccnc1C(=O)N1CC(n2cnnc2[C@@H]2CCCO2)C1,-4
19,Cc1cccc(NC(=O)CS(=O)(=O)Cc2cc(Cl)cc3c2OCOC3)c1C,-18
20,COc1ccc(CN2C(=O)c3cc4ccc(OC)cc4n3C[C@]2(C(=O)NC2CCCCCCC2)c2ccccc2)cc1,-12
21,COc1cccc(N2CCN(C(=O)c3cn4cc(-c5ccc(Cl)cc5)ccc4n3)CC2)c1,2
22,O=C(Nc1ccsc1C(=O)NC1CCCCC1)c1cnccn1,11
23,Cc1nn(C)cc1S(=O)(=O)N1CCC[C@@H]1CCc1ccccn1,-22
24,Cc1ccccc1NC(=O)c1cnn2c3c(cnc12)CCCCCC3,14
25,O=C(Nc1ccccc1)C1=NN(CC(=O)N2CCCCC2)C(=O)CC1,-1
26,O=C(NC1CCCNC1=O)NC1CCCC1c1ccc(Cl)cc1 (configuration not stated),10
27,CC(C)c1ccc(N2CCN(C(=O)c3ccc(C(F)(F)F)cc3)[C@@H](C)C2=O)cc1,8
